Source: the supplement of paper PMC10126150
Sequences with one replicate were seen in a single cluster, so their values are uncertain.

Test system: ATP
Test: switch fluorescence ratio, 500 uM ATP over buffer (Cy3 cluster intensity, sum of 5 cycles each) (fold (ratio)); higher = stronger signal-on switching upon ATP binding; sequences stand for … in TCGTCGGCAGCGTCAGATGTGTATAAGAGACAGTTTTTTTTTTTTTTTTTTTTTTTTT…TC
Details: aptamer strand: ATP DNA aptamer (quencher-CACCTGGGGGAGTATTGCGGAGGAAGG + anchor), 100 nM annealed; ATP concentration: 500 uM; one replicate
In short: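 The quencher-labelled ATP aptamer, at 100 nM, was annealed to Cy3-labelled switching-strand clusters on a modified Illumina MiSeq flow-cell. The clusters were imaged in selection buffer, then after 15 min with 500 uM ATP at 22 °C, and this buffer/ATP cycle ran five times with NaOH stripping and re-annealing between runs. Per-cluster fluorescence ratios, summed target-cycle over summed buffer-cycle Cy3 intensity, were averaged per switch-domain sequence. Clusters outside 100-1000 RFU were excluded.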
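Note: ATP exposure 15 min at 22 °C before imaging.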

## TCGCCATACG
  switch fluorescence ratio: 2.73

## CTTGCAGAGC
  switch fluorescence ratio: 0.97

## AGCACATGAG
  switch fluorescence ratio: 1.03

## ATTCTGGAGC
  switch fluorescence ratio: 1.44

## ATGCCCGTAC
  switch fluorescence ratio: 1.03

## TGTGAAGAGG
  switch fluorescence ratio: 0.992

## TTTCAATTA
  switch fluorescence ratio: 0.958

## GTTTTACGGG
  switch fluorescence ratio: 0.998

## AAGGCGGACC
  switch fluorescence ratio: 1.02

## CTGGGCGCGG
  switch fluorescence ratio: 0.961

## CTCGGAGCCC
  switch fluorescence ratio: 1.08

## TAAGCATCTG
  switch fluorescence ratio: 0.999

## ATGAGAATGG
  switch fluorescence ratio: 1.02

## GCCATGGAAG
  switch fluorescence ratio: 1.01

## CCAGTGAGTT
  switch fluorescence ratio: 0.986

## TAATGTCTA
  switch fluorescence ratio: 0.995

## CCGTTTTATT
  switch fluorescence ratio: 1.04

## TTAGAGAATG
  switch fluorescence ratio: 1.02

## TTTCTGCATC
  switch fluorescence ratio: 1.79

## GACACTGGCA
  switch fluorescence ratio: 1.04

## AAGTTATTGC
  switch fluorescence ratio: 1.07

## GCTTAAGCCG
  switch fluorescence ratio: 1.02

## CGATAACAGC
  switch fluorescence ratio: 0.997

## AAATTAACTA
  switch fluorescence ratio: 1.05

## GTCAACGAGC
  switch fluorescence ratio: 1.1

## ACATACTATG
  switch fluorescence ratio: 1.17

## CAAAGTTTTC
  switch fluorescence ratio: 1.06

## GAAACGTAGA
  switch fluorescence ratio: 1.06

## CTTATTGCTT
  switch fluorescence ratio: 0.954

## CTCTTGCGTC
  switch fluorescence ratio: 1.08

## GCGGGGTTAA
  switch fluorescence ratio: 1.01

## CTGCACCCCA
  switch fluorescence ratio: 1.43

## AAAGCGAGAT
  switch fluorescence ratio: 0.956

## TTACGACTTG
  switch fluorescence ratio: 1.01

## GGTCGTGGGA
  switch fluorescence ratio: 0.965

## CATATATAAC
  switch fluorescence ratio: 0.972

## ATCCAGTGAC
  switch fluorescence ratio: 1.07

## TCTTTCGATC
  switch fluorescence ratio: 1.05

## ATGAGCATCC
  switch fluorescence ratio: 1.01

## CTATTGCACC
  switch fluorescence ratio: 1.05

## GCGGTATTTT
  switch fluorescence ratio: 0.953

## AATAATGTAG
  switch fluorescence ratio: 0.984

## TCCATTGGT
  switch fluorescence ratio: 1.02

## TTACAAGCAC
  switch fluorescence ratio: 1.5

## TGTCATTGGC
  switch fluorescence ratio: 0.976

## GATCGATATT
  switch fluorescence ratio: 0.96

## GCCCGATGCA
  switch fluorescence ratio: 1.02

## GTTATTCGGA
  switch fluorescence ratio: 0.985

## GCATGGGTCG
  switch fluorescence ratio: 0.975

## GATAGGTAGC
  switch fluorescence ratio: 1.02

## CGAAGTGCGC
  switch fluorescence ratio: 1.08

## ATCCCTCCG
  switch fluorescence ratio: 2.15

## CGTCTGCCTG
  switch fluorescence ratio: 0.892

## CCTGTTGTAC
  switch fluorescence ratio: 1.99

## ATAACTCCTT
  switch fluorescence ratio: 1.03

## AAGGCTCCGG
  switch fluorescence ratio: 1.01

## TCGAGCTTTC
  switch fluorescence ratio: 1.18

## AAGTAACATA
  switch fluorescence ratio: 1.05

## AGGATTAGAC
  switch fluorescence ratio: 0.985

## CGCGGGTCAC
  switch fluorescence ratio: 1.1

## AGACCTAAGG
  switch fluorescence ratio: 1.04

## CCTTCGTCAG
  switch fluorescence ratio: 4.96

## CGCTTTTAGG
  switch fluorescence ratio: 0.94

## TTGGACAGAT
  switch fluorescence ratio: 1.03

## TTGCCAGC
  switch fluorescence ratio: 1.07

## AGGCCGCTTC
  switch fluorescence ratio: 1.05

## TGCCTACTTC
  switch fluorescence ratio: 0.978

## TCCGGTCCGG
  switch fluorescence ratio: 0.998

## TATGAGGTT
  switch fluorescence ratio: 1.03

## GCGATGCTTT
  switch fluorescence ratio: 1.05

## GATAGGTATT
  switch fluorescence ratio: 1.08

## GTAAATTGCA
  switch fluorescence ratio: 1.03

## CGGAGCGGGG
  switch fluorescence ratio: 1.06

## GCGACTTAGA
  switch fluorescence ratio: 0.995

## CTAGGTAATC
  switch fluorescence ratio: 1.17

## TTCGACTTTA
  switch fluorescence ratio: 0.993

## TGCATTTTAG
  switch fluorescence ratio: 1.01

## ATAAGTTGGC
  switch fluorescence ratio: 0.967

## GGATATGGTG
  switch fluorescence ratio: 0.954

## TTATGGAAGC
  switch fluorescence ratio: 1.01

## GGGAAGTATC
  switch fluorescence ratio: 1.05

## GCCTAGCTAT
  switch fluorescence ratio: 0.998

## CACTCCAGAC
  switch fluorescence ratio: 1.53

## AGTATGTGAG
  switch fluorescence ratio: 0.987

## GACGGAGTGC
  switch fluorescence ratio: 1.91

## TTGCGGGGTC
  switch fluorescence ratio: 1.06

## ACGCGCGAGT
  switch fluorescence ratio: 1.06

## TTCGAAAAGT
  switch fluorescence ratio: 0.973

## TATATCGTGG
  switch fluorescence ratio: 0.946

## CGGCATGAAT
  switch fluorescence ratio: 0.941

## CCTAACTCCC
  switch fluorescence ratio: 2.69

## TTGTAAAGA
  switch fluorescence ratio: 0.948

## CGTACACCC
  switch fluorescence ratio: 1.28

## AGTTTTAGCG
  switch fluorescence ratio: 1.01

## AACAAAAAGG
  switch fluorescence ratio: 1

## ACAAGATTAA
  switch fluorescence ratio: 0.975

## TTGGGCAAAT
  switch fluorescence ratio: 1.01

## TGTTCCCCGA
  switch fluorescence ratio: 1.01

## GCTGAGTAGC
  switch fluorescence ratio: 0.997

## ATTCATAAAA
  switch fluorescence ratio: 1.04

## CATACGGTCC
  switch fluorescence ratio: 1.06

## TTTCGGTTGA
  switch fluorescence ratio: 1.05

## TGTGTTGTAG
  switch fluorescence ratio: 1

## ACATTAGAAG
  switch fluorescence ratio: 1.05

## GCGGTGGGCT
  switch fluorescence ratio: 0.988

## TTAGGAATAG
  switch fluorescence ratio: 1.03

## GGGAATAAAA
  switch fluorescence ratio: 0.969

## TATTGAGCC
  switch fluorescence ratio: 0.995

## TTATTAAAAA
  switch fluorescence ratio: 0.979

## GTGACTCGGG
  switch fluorescence ratio: 1.02

## AGCCGATGTA
  switch fluorescence ratio: 0.992

## CAAATCACGC
  switch fluorescence ratio: 1.09

## ACTGGTCTAT
  switch fluorescence ratio: 0.971

## GTGGGGGCCG
  switch fluorescence ratio: 1.09

## GATATCTTAG
  switch fluorescence ratio: 0.994

## CGTAGTACCT
  switch fluorescence ratio: 1.12

## GTTTCCTAGT
  switch fluorescence ratio: 1.01

## CAAGTGATGG
  switch fluorescence ratio: 0.949

## TTGGCGATAT
  switch fluorescence ratio: 1.63

## GACATTCGGC
  switch fluorescence ratio: 1.05

## ATACGTTGGA
  switch fluorescence ratio: 1.02

## ACTGAAGAGG
  switch fluorescence ratio: 1.01

## TCCCACTTT
  switch fluorescence ratio: 1.02

## TACTAGGAC
  switch fluorescence ratio: 1.07

## GATTTTAAAA
  switch fluorescence ratio: 1.08

## TCCGAGGGG
  switch fluorescence ratio: 1.04

## AAGGTGGTC
  switch fluorescence ratio: 1.03

## AGGAGGCTGA
  switch fluorescence ratio: 1

## ATAGAACAAC
  switch fluorescence ratio: 1.02

## TATTATTTC
  switch fluorescence ratio: 0.967

## TCACTTGGTT
  switch fluorescence ratio: 1.06

## GCAACTGCCC
  switch fluorescence ratio: 1.22

## CAATGAGGTC
  switch fluorescence ratio: 0.851

## TTTATACATC
  switch fluorescence ratio: 1.05

## CGATGGGCTC
  switch fluorescence ratio: 1.02

## TCGGAGTTAA
  switch fluorescence ratio: 1.19

## GCGCTTTTT
  switch fluorescence ratio: 0.937

## AAAAAACTTA
  switch fluorescence ratio: 1.12

## CGGCAAAGGG
  switch fluorescence ratio: 0.972

## ATTACAGGAA
  switch fluorescence ratio: 1.01

## CGAGGGATG
  switch fluorescence ratio: 0.927

## TCATGTCGCG
  switch fluorescence ratio: 0.968

## CACTCGCTGT
  switch fluorescence ratio: 1.11

## TACGGGCCGC
  switch fluorescence ratio: 1.03

## ACAATACTGA
  switch fluorescence ratio: 1.3

## GTTGAAGGGC
  switch fluorescence ratio: 0.979

## AATCTCAAC
  switch fluorescence ratio: 0.98

## AGGATCATTC
  switch fluorescence ratio: 0.947

## TAAGCTACCT
  switch fluorescence ratio: 1.24

## CAATTAGCGT
  switch fluorescence ratio: 0.977

## GATATCGTGT
  switch fluorescence ratio: 0.995

## AAAGAAGAGC
  switch fluorescence ratio: 1.01

## CCCGTGCGCG
  switch fluorescence ratio: 1.01

## TTTCAACGCT
  switch fluorescence ratio: 1.33

## AGTAGGATAG
  switch fluorescence ratio: 0.987

## ACCCAGTCTT
  switch fluorescence ratio: 1.02

## TTGTCTTGGT
  switch fluorescence ratio: 1.04

## GGAAAGCGCC
  switch fluorescence ratio: 1.06

## GGACACCATA
  switch fluorescence ratio: 1.04

## CCTGGAAATG
  switch fluorescence ratio: 1.14

## CTTAAGAGAA
  switch fluorescence ratio: 0.988

## ACCTTAAGTT
  switch fluorescence ratio: 0.99

## CGGTTCTAC
  switch fluorescence ratio: 1.05

## CAAATTATTT
  switch fluorescence ratio: 1.02

## ACCCGGGGCC
  switch fluorescence ratio: 1.01

## AATGAAAAG
  switch fluorescence ratio: 0.99

## AGACAAGGCT
  switch fluorescence ratio: 0.976

## ATATTACGAG
  switch fluorescence ratio: 1.03

## TCGCACCGCC
  switch fluorescence ratio: 1.2

## GGGCGAGTAG
  switch fluorescence ratio: 1

## GAAACTCGGC
  switch fluorescence ratio: 1.17

## CCTGCTTAGG
  switch fluorescence ratio: 0.972

## CGTACTAATC
  switch fluorescence ratio: 1.03

## GCGACTAAGA
  switch fluorescence ratio: 0.972

## AAGTATGAGG
  switch fluorescence ratio: 0.975

## CGAGGTCTCT
  switch fluorescence ratio: 1.02

## AGTACACCAC
  switch fluorescence ratio: 1.39

## TTACACAGAG
  switch fluorescence ratio: 1.06

## TTAAATGGCG
  switch fluorescence ratio: 1.02

## CCGACAACTA
  switch fluorescence ratio: 3.4

## ATGAAAT
  switch fluorescence ratio: 0.982

## AAAGGACCTT
  switch fluorescence ratio: 1.12

## GTCGTATGTC
  switch fluorescence ratio: 0.936

## GTTCATTTAT
  switch fluorescence ratio: 0.974

## GGTAGAATCA
  switch fluorescence ratio: 1.01

## CGAAGTATAT
  switch fluorescence ratio: 1.16

## CCATAGCCGC
  switch fluorescence ratio: 2.78

## AGGATATATG
  switch fluorescence ratio: 0.961

## CCTTGGCAGG
  switch fluorescence ratio: 1.52

## TGTATTGCTT
  switch fluorescence ratio: 0.987

## GCATCTTGGA
  switch fluorescence ratio: 0.924

## GATGTCAATC
  switch fluorescence ratio: 1.01

## TTGGCCAATG
  switch fluorescence ratio: 1.02

## GTACGCGCA
  switch fluorescence ratio: 1.06

## ACGGAAAGTC
  switch fluorescence ratio: 1.02

## ACAGAATCAA
  switch fluorescence ratio: 1.02

## TCAAGTAAAC
  switch fluorescence ratio: 1.14

## TGGGACTAG
  switch fluorescence ratio: 0.971

## TTTGACAGAG
  switch fluorescence ratio: 0.962

## CATAGAAGGT
  switch fluorescence ratio: 1.01

## GCCTAGGGGC
  switch fluorescence ratio: 1
